# Results reported in paper PMC6919601, “Identification of Plasmodium dipeptidyl aminopeptidase allosteric inhibitors by high throughput screening” (PLoS ONE, 2019).
# The whole screen tested about 110,000 compounds, of which about 230 (0.21%) showed an effect of 50% or more. Some of the results follow.
# Target: DPAP1 (Plasmodium falciparum, UniProt Q8IIJ9)
# Experiment: primary screen, percent inhibition; read by cleavage of a fluorogenic dipeptide substrate; higher = more effect of the substance
# Parameters: species or system P. falciparum D10 trophozoite lysates; single well
# 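Also: 30 min substrate incubation versus DMSO and 10 µM JCP410 controls.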
# DPAP1, sequence (Q8IIJ9 whole entry, looked up): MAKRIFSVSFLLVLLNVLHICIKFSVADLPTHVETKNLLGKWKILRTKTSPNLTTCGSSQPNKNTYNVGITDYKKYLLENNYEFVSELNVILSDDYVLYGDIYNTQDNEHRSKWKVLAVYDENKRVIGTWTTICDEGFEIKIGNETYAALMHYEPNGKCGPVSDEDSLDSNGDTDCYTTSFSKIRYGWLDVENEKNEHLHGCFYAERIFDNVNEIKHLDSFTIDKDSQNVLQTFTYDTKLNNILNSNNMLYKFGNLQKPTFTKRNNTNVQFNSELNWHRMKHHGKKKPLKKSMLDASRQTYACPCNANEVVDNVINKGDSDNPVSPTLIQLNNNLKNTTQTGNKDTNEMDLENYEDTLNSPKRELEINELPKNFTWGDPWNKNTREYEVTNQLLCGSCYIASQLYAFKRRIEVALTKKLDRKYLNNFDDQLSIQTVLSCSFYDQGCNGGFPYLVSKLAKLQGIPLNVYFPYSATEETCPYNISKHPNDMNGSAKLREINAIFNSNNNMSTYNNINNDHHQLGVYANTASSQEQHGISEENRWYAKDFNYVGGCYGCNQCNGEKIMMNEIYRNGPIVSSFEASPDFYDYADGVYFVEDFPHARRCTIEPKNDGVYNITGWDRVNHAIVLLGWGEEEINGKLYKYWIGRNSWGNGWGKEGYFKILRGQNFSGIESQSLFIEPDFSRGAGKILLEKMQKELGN
row,Structure (SMILES),% Inhibition @ 10 uM [%]
1,NC(=O)c1cccc(NC(=O)Nc2ccc(Cl)cc2)c1,2.76
2,O=C1c2ccc(F)cc2C(=O)N1c1ccc2c(c1)OCCO2,-2.32
3,COc1ccccc1NC(=O)c1ccc([N+](=O)[O-])cc1C(=O)O,17.9
4,SCCNCCc1c[nH]c2ccccc12,-3.58
5,Cc1cccc(C2CC(=O)NC3=C2C(=O)CC(c2cccs2)C3)c1 (stereo not drawn),-6.14
6,COc1nc(-c2ccccc2)cc(-c2ccccc2)c1C#N,-3.72
7,CCOC(=O)c1c(-c2ccccc2)csc1NC(=O)c1onc(C)c1Cl,1.42
8,CCOC(=O)c1cnc2c(OC)cccc2c1O,-2.97
9,COc1ccc2nc(NC(=O)Cn3nc(Cc4ccncc4)c4ccccc4c3=O)sc2c1,-4.69
10,O=C(/C=C/c1ccccc1Cl)Nc1ccc(Br)cc1,4.6
11,Cc1ccc(S(=O)(=O)/N=S(\C)CC2CC2(Cl)Cl)cc1 (stereo not drawn),-0.0626
12,Oc1nc2sc3c(c2c2ncnn12)CCCC3,-1.69
13,CC(C)(C)C1(O)CC(C(F)F)=NN1C(=O)c1ccccc1 (stereo not drawn),1.96
14,Cc1ccc(CNC(=O)c2cc3c(s2)-c2ccccc2S(=O)(=O)C3)cc1,-0.72
15,CC(CNC(C)c1ccccc1)C(=O)O (stereo not drawn),3.42
16,O=C1c2ccccc2C(c2ccc(O)cc2)(c2ccc(O)cc2)N1c1ccccc1,17.4
17,CCCCn1c(=O)c2oc3ccccc3c2n(Cc2ccccc2)c1=O,7.08
18,Cc1ccc(C)c(OCCCn2cc(/C=C3/C(=N)N4C=CSC4=NC3=O)c3ccccc32)c1,-3.41
19,CCOC(=O)c1cc2nc(-c3ccccc3)cc(C)n2n1,-0.267
20,COc1ccc(NC(=O)CC(C)C)cc1NC(=O)c1ccco1,-11.5
21,O=C(NCc1cccc2ccccc12)C1CCCO1 (stereo not drawn),1.84
22,COc1ccc(NC(=O)C(C)Oc2ccc(C)cc2)cc1 (stereo not drawn),0.795
23,CN(C)S(=O)(=O)c1ccc2nc(NC(=O)c3ccncc3)sc2c1,7.16
24,CCC(C(=O)NCc1ccccn1)n1nc(C)n2c(cc3sccc32)c1=O (stereo not drawn),-3.35
25,O=C1C2CCCCC2C(=O)N1Cc1cccnc1 (stereo not drawn),-2.8
26,CCCOc1c(Br)cc(Br)cc1C=C1C(=O)NC(=O)NC1=O,24.7

row,Structure (SMILES),% Inhibition @ 10 uM [%]
1,CC(=O)c1ccc(N2CCN(Cc3cccc(C)c3)CC2)cc1,0.815
2,CCN(CC)S(=O)(=O)c1nnc(NC(=O)c2cccc(C)c2)s1,1.68
3,CCOC(=O)N1CCC(NC2=NS(=O)(=O)C(c3ccc(F)cc3)=C2C)CC1,-2.44
4,CCO/C(O)=C1\C(C)=NC(=S)NC1c1c(OCC(=O)N2CCOCC2)ccc2ccccc12 (stereo not drawn),-3.48
5,CCCCn1cnc2scc(-c3ccc(OC)c(OC)c3)c2c1=O,5.09
6,CN(C)CCN(C(=O)CN1C(=O)c2ccccc2C1=O)c1nc2ccc(Cl)cc2s1,-4.44
7,Cc1ccc2oc(=O)c3cc(C(=O)N(C)C4CCCCC4)sc3c2c1,3.06
8,O=C1CC(=O)N(c2ccc(Cl)cc2)C(=O)N1,0.266
9,CC1=C(C(=O)Nc2ccccc2C)C(c2cccc(Br)c2)n2ncnc2N1 (stereo not drawn),-5.92
10,CCC(C(=O)Nc1ccccn1)c1ccccc1 (stereo not drawn),1.15
11,CCC(C)NCc1c(C)sc(C)c1CNC(C)CC (stereo not drawn),-1.29
12,CN(C(=S)NCc1ccccc1)C1CCC2(CCCCC2)CC1,-6.06
13,COc1ccc(S(=O)(=O)N2CCC(NC(=O)NCC(C)O)CC2)cc1 (stereo not drawn),3.88
14,Cc1nc(SCC(=O)c2ccc(F)cc2)c(C#N)c(C)c1C,2.01
15,CCC1CCCCN1C(=O)c1cc2c(s1)-c1ccccc1OC2 (stereo not drawn),-1.58
16,CCOc1cc(C2C(C#N)=C(N)OC3=C2C(=O)CC(C)(C)C3)ccc1O (stereo not drawn),-4.43
17,O=C(O)CC1C2CCCC(C2)C(=O)C1C(=O)O (stereo not drawn),4.42
18,CCC(C)NC(=O)CSc1nc2nc(C)c(Cc3ccccc3Cl)c(C)n2n1 (stereo not drawn),7.99
19,Cc1ccccc1C(=O)N1CCN(c2cccc(C)c2C)CC1,5.24
20,Cc1nn(CC(=O)NCCc2nc3ccccc3[nH]2)c(C)c1Br,-2.28
21,Cc1ccc(C(C#N)NC(=O)C(Cc2c(F)cccc2F)NC(=O)c2ccc(-c3ccccc3Cl)cc2)o1 (stereo not drawn),-1.82
22,CCOc1ccc(NC(=O)c2cccc([N+](=O)[O-])c2)cc1,0.317
23,Cc1nn(-c2ccc(F)cc2)c(-n2cccc2)c1C(=O)NC(C)c1ccccc1 (stereo not drawn),-6.11
24,CN(C(=O)c1ccc(Cl)cc1)c1ccccc1,-8.01
25,O=C(c1cnc(N2CCN(c3ncccn3)CC2)c2ccccc12)N1CCN(c2ccccn2)CC1,5.88
